From the RNAGym collection of RNA variant scans (doi:10.1073/pnas.2313332121)
Variants at the background level are over-represented here.

B1: TPR 5TU (parent)
chain: GGAUCUUCUCGAUCUAACAAAAAAGACAAAUCUGCCACAAAGCUUGAGAGCAUCUUCGGAUGCAGAGGCGGCAGCCUUCGGUGGCGCGAUAGCGCCAACGUUCUCAACUAUGACACGCAAAACGCGUGCUCCGUUGAAUGGAGUUUAUCAUG

Variants of: B1
Assay: polymerase ribozyme fitness, log enrichment relative to wild type (log ratio); higher = more active; in vitro selection for triplet polymerase activity
How it was run: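 Fitness is a logarithmic measure of how a genotype enriched relative to the wild type, with replicate averages weighted by inverse variance. The logarithm uses base 2, and enrichment came from Illumina sequencing of input and output libraries. Those libraries were PCR-built, transcribed mutants of each subunit of a heterodimeric triplet polymerase ribozyme, passed through one triplicate in vitro selection round that included frozen incubation at −7 °C, gel excision of extended constructs and streptavidin-bead capture. Genotypes were kept only if they had ≥10 input reads and ≥1 read per output.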

| Variant | polymerase ribozyme fitness (log ratio) |
| --- | --- |
| G11A G59A | -1.71 |
| G11A G67A C79G C87A C114G A137G | ≤ -4.2 |
| G11A G92U | -1.16 |
| G11A G94U A113C C114U A122C G143U C149U | ≤ -4.2 |
| G11A U13A C27G A49C C76U A89G A91G A97U C129U | ≤ -4.2 |
| G11A U15G G42U G48U U139C | ≤ -4.2 |
| G11A U31A A47G G62U C63G C87A U111G | ≤ -4.2 |
| G11A U33G C38U U44A U55G G86C G117U G143A | ≤ -4.2 |
| G11A U61A U77A | ≤ -4.2 |
| G11C A19G C51U C75G G81C C96U C118A | ≤ -4.2 |
| G11C A21C U45A | ≤ -4.2 |
| G11C A21U A40U G58C C75G A91G C118U | ≤ -4.2 |
| G11C A24U U44G U53A C75G G94A U139A | ≤ -4.2 |
| G11C A26G C27G A37U G83A C103A U148C | ≤ -4.2 |
| G11C A28G U56A U77A C87A A122U | ≤ -4.2 |
| G11C A40C G42A G58U A60U C85G A89U C93G | ≤ -4.2 |
| G11C A41C A66C C85U A122U G140U | ≤ -4.2 |
| G11C A47C U53A G65A C75G G84C G141A | ≤ -4.2 |
| G11C A47U C85U | -2.5 |
| G11C A49G U55A A64G C93U G140U | ≤ -4.2 |
| G11C A60G C96G U111A | ≤ -4.2 |

| Variant | polymerase ribozyme fitness (log ratio) |
| --- | --- |
| G11C A60G G84A A89G C116U A147U U148A | ≤ -4.2 |
| G11C C14G A24U A29C A30G G68U C85G G124U | ≤ -4.2 |
| G11C C14U A37C C93U | ≤ -4.2 |
| G11C C14U U53A C93G A97G U111G U148G | ≤ -4.2 |
| G11C C18G A23C G48A G88U C93G U144A | ≤ -4.2 |
| G11C C35U A52C A60G | ≤ -4.2 |
| G11C C87U A107G C116G | ≤ -4.2 |
| G11C C114U G141U U148A | ≤ -4.2 |
| G11C G34A G58U G94A U144G | ≤ -4.2 |
| G11C G42U U55G C76U | ≤ -4.2 |
| G11C G46A C54A G86A | ≤ -4.2 |
| G11C G50U G84U A97G | -3.09 |
| G11C G59A G80C | ≤ -4.2 |
| G11C G74A U102G C132U | ≤ -4.2 |
| G11C G92U C116A A121G G126A C149G | ≤ -4.2 |
| G11C U15G G59U C76A C85G | ≤ -4.2 |
| G11C U31C G59C C76A G84U U104A A107U | ≤ -4.2 |
| G11C U56A U102G C116A | ≤ -4.2 |
| G11U A17C A37U A121U A122U | -3.25 |
| G11U A17C G34A C85A | ≤ -4.2 |
| G11U A19C G70U U102A | ≤ -4.2 |

| Variant | polymerase ribozyme fitness (log ratio) |
| --- | --- |
| G11U A19G C57A G58U G80A C114U G140C | ≤ -4.2 |
| G11U A19U G92A G100A A110G G133A | ≤ -4.2 |
| G11U A20C G48A G62U G83U G126U | ≤ -4.2 |
| G11U A22U C38U A60C C85A G140C U148G | ≤ -4.2 |
| G11U A23C U31C G84A G92C | ≤ -4.2 |
| G11U A24G G50U C57U U102G | ≤ -4.2 |
| G11U A24U G48A U61A C93G C95A G143C | ≤ -4.2 |
| G11U A30C A66U U104G | ≤ -4.2 |
| G11U A39C U55A G62A G74C C85U U130A G140C U148G | ≤ -4.2 |
| G11U A40C G70C C103G | ≤ -4.2 |
| G11U A91G | -3.82 |
| G11U C14G C87A A121U C125A | ≤ -4.2 |
| G11U C27U C87G C149G | ≤ -4.2 |
| G11U C32U C93G A107G | ≤ -4.2 |
| G11U C35A G136A U146G | ≤ -4.2 |
| G11U C76A G83U C85A A137G | ≤ -4.2 |
| G11U C85A C131A A137G G143A | ≤ -4.2 |
| G11U C87G | -4.09 |
| G11U G34A G50A C85U U90C G143A | ≤ -4.2 |
| G11U G42A C76U G94C C129G | ≤ -4.2 |
| G11U G50U U56A C87U U151C | ≤ -4.2 |

| Variant | polymerase ribozyme fitness (log ratio) |
| --- | --- |
| G11U G70A C85U G94U G133U G143A U145G | ≤ -4.2 |
| G11U U13A A17U A26U A41C U45A C87A C108U A142C A147U | ≤ -4.2 |
| G11U U31A C87A C93U C99G | ≤ -4.2 |
| A12C A16C U53G C85A C99A U109G G133A G143A | ≤ -4.2 |
| A12C A16U C87G | ≤ -4.2 |
| A12C A17G U31G U44A C93U C99U A122C U134A A142G | ≤ -4.2 |
| A12C A17U U53A C96A U139G | -3.83 |
| A12C A19C U45G G84U A142C | ≤ -4.2 |
| A12C A20C C57U U102G A106U U148C | ≤ -4.2 |
| A12C A20G A37C C51U G58C A91C | ≤ -4.2 |
| A12C A21C A52C C87A C118G G136A | ≤ -4.2 |
| A12C A24C A37C G46C U55A C57G A98G C116U A120G | ≤ -4.2 |
| A12C A24G U44G C85U C87U | ≤ -4.2 |
| A12C A24U A49C C69G C93G A98G | ≤ -4.2 |
| A12C A24U A49C C99U G143U | ≤ -4.2 |
| A12C A24U C57G C103G C116U G124U | ≤ -4.2 |
| A12C A24U G59A A60C A142C | ≤ -4.2 |
| A12C A26U A40C U44G G65U A107G U111G G126U | ≤ -4.2 |
| A12C A26U A66C G84A C96U A97G | ≤ -4.2 |
| A12C A28G A39C G74C | ≤ -4.2 |
| A12C A28U C54G C96A A121G G133U | ≤ -4.2 |
